# Measured values as given in the supplement of paper PMC3334620.
# Whole data set: some 33,000 sequences, median “E-score (-0.5 to 0.5)” near -0.012, cut for the highest 2% near 0.29. This is one part of the list.
# Molecular target: T1, Ybr033w (UniProt P38073)
# T1 sequence: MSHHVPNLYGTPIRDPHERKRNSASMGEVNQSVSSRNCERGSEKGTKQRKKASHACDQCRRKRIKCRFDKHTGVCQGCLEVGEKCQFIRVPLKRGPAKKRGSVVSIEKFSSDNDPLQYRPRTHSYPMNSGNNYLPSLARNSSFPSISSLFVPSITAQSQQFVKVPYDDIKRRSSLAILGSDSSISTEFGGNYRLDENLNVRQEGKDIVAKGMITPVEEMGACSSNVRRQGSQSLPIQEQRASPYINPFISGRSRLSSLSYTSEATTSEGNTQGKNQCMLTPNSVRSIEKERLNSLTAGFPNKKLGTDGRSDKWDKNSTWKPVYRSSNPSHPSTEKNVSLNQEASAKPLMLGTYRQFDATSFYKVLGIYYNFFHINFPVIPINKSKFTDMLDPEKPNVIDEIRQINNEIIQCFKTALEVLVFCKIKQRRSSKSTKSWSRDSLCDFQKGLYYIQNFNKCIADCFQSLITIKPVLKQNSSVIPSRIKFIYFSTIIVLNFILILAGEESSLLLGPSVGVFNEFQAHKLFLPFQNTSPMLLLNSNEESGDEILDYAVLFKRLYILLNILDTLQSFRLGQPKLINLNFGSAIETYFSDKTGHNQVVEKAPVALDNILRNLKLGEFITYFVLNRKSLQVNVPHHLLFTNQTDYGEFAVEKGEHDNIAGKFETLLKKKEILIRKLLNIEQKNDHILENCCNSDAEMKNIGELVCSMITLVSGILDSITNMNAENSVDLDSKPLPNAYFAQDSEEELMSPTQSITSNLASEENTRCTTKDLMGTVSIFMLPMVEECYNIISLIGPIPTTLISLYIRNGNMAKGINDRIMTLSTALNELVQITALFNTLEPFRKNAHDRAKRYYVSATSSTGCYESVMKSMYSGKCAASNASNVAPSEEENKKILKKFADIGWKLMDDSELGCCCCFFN
# Assay: PBM E-score (8-mer binding enrichment) (E-score (-0.5 to 0.5)); higher = stronger / more preferred TF binding; most listed sequences are background and not binding sites
# Settings: protein concentration: 200 nM; construct: GST-full length
# Summary of the method: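 Universal all-10-mer Agilent arrays, fresh or stripped once, were converted to double-stranded form by primer extension. GST-tagged yeast transcription factors from PURExpress in vitro transcription/translation, full-length or DNA-binding domain only, were applied at about 100-200 nM and detected with fluorescent anti-GST. After masliner normalisation, the Universal PBM Analysis Suite scored each ungapped eight-base word together with its reverse complement by E-score.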
row,Sequence,PBM E-score
1,CCTTCACG,-0.0929
2,CCCTGCAG,-0.144
3,CAAAAACC,0.287
4,GCATTACA,-0.0605
5,CTCGCACA,-0.119
6,GCTGGGGA,-0.222
7,CTGACAGC,-0.101
8,GATAGGAC,-0.188
9,ACATCACT,0.137
10,CATCAACG,0.162
11,GGGTTAGA,-0.221
12,CAGCAATC,0.019
13,ACGACATG,0.0526
14,TGGTACCA,-0.0359
15,CTATTCAC,0.148
16,AAAACCCG,0.146
17,CAAGAAGA,0.137
18,AAGAGTGT,0.0841
19,CACGAACC,-0.0948
20,AACATGAT,0.198
21,AAACACAC,0.103
22,TAATCCTA,0.185
23,AAGCGATC,0.102
24,ACCTACAT,0.0343
25,ACGGTACT,-0.0218

row,Sequence,PBM E-score
1,GGATAGAC,-0.105
2,GGGGCTAC,-0.244
3,CGCAAGAG,-0.113
4,AAAATAAC,0.189
5,AGCACACG,-0.0988
6,CACGTGAA,-0.0657
7,CGCCGAAA,-0.048
8,CGGACATC,-0.111
9,TATGGAAA,0.242
10,CCTACTAG,0.0507
11,CAGGATCA,0.0474
12,CAGGGTAA,0.015
13,GGTCAAGA,-0.0424
14,AGTGGATC,0.0532
15,ATATGGCG,0.0393
16,CGCGGACC,-0.187
17,CGGGATCA,0.044
18,AAGTACGT,0.148
19,ATCGCTTG,-0.0992
20,AGCCCAAT,-0.125
21,ACGAATGC,0.0238
22,GTCGGCAC,-0.0718
23,ACTTTTCA,0.182
24,CCTTTGTA,-0.0461
25,CCACTGGG,-0.308

row,Sequence,PBM E-score
1,AGGCAATC,0.0764
2,ACGATCAT,0.0806
3,CAGACAGA,0.00803
4,CATCCCAA,0.0994
5,GGTACGAC,-0.0943
6,ACTTTCAG,0.0141
7,GCACTCCA,-0.134
8,CACTCCGC,-0.027
9,GCCGAGAC,-0.224
10,CATATCTC,0.129
11,CTCGATGC,-0.115
12,GGCTACTA,0.124
13,ATTTATTC,0.361
14,GATCGATA,0.0488
15,GGTACATA,0.074
16,GAAAACGC,0.0339
17,CCACAGAA,-0.0197
18,AACACGAT,0.0963
19,AATCGCAC,-0.128
20,ATTGGGTA,-0.00698
21,CTCATAGC,-0.113
22,ACTTGCCA,-0.00759
23,ATGTGAGG,-0.0879
24,GAATTTTA,0.295
25,AGGGGGAT,-0.4

row,Sequence,PBM E-score
1,ACTAGAAC,0.0607
2,GCAACTCA,0.0964
3,CCGGCGAC,-0.289
4,ACAATAAC,0.246
5,AGGGTTCC,-0.194
6,CTGAAGCA,-0.0699
7,ACAAAAGG,0.0138
8,CCGCATCC,-0.247
9,TAGCCTGA,-0.159
10,CTACCCAG,-0.033
11,CACTTAGG,-0.24
12,ATTATAGA,0.265
13,CAGGGGAG,-0.205
14,CTCTTCGC,-0.13
15,CGGTTACG,-0.168
16,GGCCCTTA,-0.239
17,ACGTAATA,0.164
18,ATTCTGCC,0.0257
19,AAGTTCTG,0.103
20,TAGCAGGA,-0.08
21,AATAGAAG,0.106
22,CAGAGACC,-0.252
23,GGGCGAAA,0.127
24,AACCTCGG,0.0447
25,GGTTAGAC,-0.0457

row,Sequence,PBM E-score
1,CTTAGAAA,0.138
2,CGCGCGGA,-0.00091
3,CTCGCCTC,-0.259
4,CTGGATAC,-0.107
5,CTGCTCGC,-0.0887
6,GGAATGCA,0.105
7,AGTTAGAT,0.18
8,AGAGACTG,-0.243
9,ACTCGCCA,-0.0174
10,ACCGAGCA,0.00152
11,ATCACCGC,-0.13
12,GTTTATCA,0.141
13,ACGCGTTA,-0.0212
14,ACGAGTTG,0.0676
15,CATCAGAA,0.101
16,AGGGCTGC,-0.358
17,GAAACCCC,-0.0402
18,ATTTCGGA,0.264
19,GTGTGTCA,0.209
20,GGGTTTGA,0.0772
21,GGACACGA,-0.263
22,AGTTCCCG,-0.192
23,AGCAAGAA,0.125
24,AACTAGGC,-0.0432
25,CGCTTCCG,-0.19

row,Sequence,PBM E-score
1,CAGTCCTA,-0.06
2,ACCGGACT,-0.0402
3,GAGCCAAC,-0.161
4,GAGTTGAC,-0.0171
5,CAGCGATG,-0.126
6,CTTTGCTC,-0.104
7,AAAGAGCC,-0.112
8,ATGGCCTG,-0.16
9,AGCTTAAG,0.0321
10,TAGCTGAA,0.111
11,GTCTGCAC,-0.164
12,ACGGTCCA,-0.201
13,CCCCGCTC,-0.346
14,GCTATATA,0.194
15,CGATCAAC,-0.144
16,ACCGCCCC,-0.158
17,ACATCACG,-0.0607
18,TACACTAA,0.0217
19,ATGAGATG,0.122
20,ACAGATGG,-0.0785
21,ACACGTGT,-0.0649
22,ATGGTCGA,0.137
23,AGGATGAC,-0.156
24,GAACGTCA,-0.222
25,CCGCCAGC,-0.172

row,Sequence,PBM E-score
1,GGAAGAGA,-0.0803
2,CGGTATTA,0.108
3,GATATGGC,-0.161
4,ATTTCATG,0.0772
5,ATTGAGTA,0.29
6,AGACAGAA,0.209
7,CTGTTGGA,0.0606
8,CGAAATGA,0.131
9,CAGAAGGC,-0.0891
10,CCGGGAGG,-0.208
11,GGAGACTA,0.0159
12,CTCCCTAC,-0.194
13,GGGCGCAC,-0.282
14,CGGATAAC,0.0679
15,GAACCGAC,-0.00873
16,CAGTATCC,0.0576
17,ATAAAATG,0.219
18,ACTCTGGC,-0.073
19,AATATTAC,0.283
20,CGTGGTCA,-0.173
21,AGCGGGAT,-0.086
22,AAGGACCA,-0.2
23,ATATCGCA,0.0731
24,ATAACAAT,0.165
25,TAAGGGGA,-0.129

row,Sequence,PBM E-score
1,ACCCCCAC,-0.458
2,ATCATCGG,-0.00717
3,GCGCGTTA,0.0464
4,AGCGTCAA,0.0946
5,AGAGTCAT,-0.209
6,ACTTCGAA,-0.0475
7,ATTGACGC,-0.0049
8,ATCCGCTC,-0.102
9,ATCGCCAT,-0.0752
10,GTCGCGTA,0.0648
11,AAACGCGA,0.0304
12,AAGCGAGT,0.167
13,ACTTATAG,0.0878
14,ATAAAGAC,0.0374
15,ATTAAAAG,0.223
16,GGATTACA,-0.0482
17,ACACACAC,0.0456
18,CGAGAATA,0.212
19,TGAGAACA,0.13
20,GAAGGGGC,-0.323
21,CGAAGTAC,0.0105
22,CATCTTGG,0.0844
23,CATCGGCA,-0.127
24,AGTGATAT,0.107
25,CAACGAAG,-0.0127

row,Sequence,PBM E-score
1,ATATGTTG,0.272
2,CTACCAAG,-0.0238
3,AGCGTACT,-0.111
4,AAGGCCAG,-0.105
5,GCAGTACA,-0.235
6,TACTTGAA,0.0775
7,AGGGCGGG,-0.164
8,AGACCAAT,0.0603
9,GTGAAGAA,0.0574
10,ATATCTCC,0.158
11,ATGGACAG,-0.0265
12,AGGTGCAA,0.0949
13,GTCGAGAA,0.0995
14,CCCCAAAG,-0.26
15,GGAAATCA,-0.0347
16,CCGGGAAG,-0.0608
17,AAGATCGC,-0.0697
18,CGATACAG,-0.17
19,CCAATTTC,0.173
